# Results taken from PubChem BioAssay AID485344 (National Center for Advancing Translational Sciences (NCATS), 2010).
# Out of some 340,000 compounds screened, about 6,900 (2%) were called active. Rule as the data show it: active = inhibition above about 30%; inactive = below that, where a call was filed. The entries are a selection whose mix differs from that of the whole data set. The source gives no active or inactive call for entries shown without one.
# Biological target: D(2) dopamine receptor (Homo sapiens) (UniProt P14416)
# Sequence of UniProt P14416 (P14416 whole entry, looked up): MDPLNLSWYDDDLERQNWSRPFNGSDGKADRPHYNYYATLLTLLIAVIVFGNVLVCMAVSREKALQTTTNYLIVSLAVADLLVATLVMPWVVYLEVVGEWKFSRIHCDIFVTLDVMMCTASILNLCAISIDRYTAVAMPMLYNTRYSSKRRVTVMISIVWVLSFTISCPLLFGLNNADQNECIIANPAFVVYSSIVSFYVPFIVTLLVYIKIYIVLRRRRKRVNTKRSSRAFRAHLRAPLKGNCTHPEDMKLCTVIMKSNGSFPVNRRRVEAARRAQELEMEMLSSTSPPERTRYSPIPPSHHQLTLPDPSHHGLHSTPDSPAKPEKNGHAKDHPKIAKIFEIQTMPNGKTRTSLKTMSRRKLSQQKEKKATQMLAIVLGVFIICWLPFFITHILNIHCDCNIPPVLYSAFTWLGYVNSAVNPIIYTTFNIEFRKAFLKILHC
# Test: HTS Assay for Allosteric Antagonists of the Human D2 Dopamine Receptor: Primary Screen for Antagonists; also: 0% is about no effect
# Conditions: HEK293 TREx D2 cells, calcium flux, dopamine EC80; at 10 µM; stronger effect = higher value
# Method in brief: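 Tetracycline-induced HEK293 TREx cells expressing D2 receptor forced-coupled to calcium signalling, loaded with no-wash calcium dye. Compounds added and calcium flux read 180 s, then dopamine added at EC80 and read a further 180 s.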
row,SMILES,inhibition
1,CCOC(=O)CSc1nnc(CNC(=O)c2cccc(C)c2)n1C,active: 35.3%
2,CCN1CCN(C(c2ccccc2Cl)c2sc3nc(-c4ccco4)nn3c2O)CC1 (stereo unspecified),15.5%
3,CCOC(=O)c1[nH]c2c(c1Cc1ccccc1)C(=O)CC(c1ccccc1)C2 (stereo unspecified),-12.6%
4,CCOc1ccc(NC(=O)Cn2nc3c(cc2=O)CC(C)CC3)cc1 (stereo unspecified),2.22%
5,CC(C)Oc1ccc(C(=O)NCC(c2ccc(N(C)C)cc2)N2CCc3ccccc32)cc1 (stereo unspecified),-3.37%
6,Cc1ccc(-c2noc(-c3nnn(CC(=O)Nc4ccc(C)c(Cl)c4)c3N)n2)cc1,-8.82%
7,CCOc1ccc(N(CC(=O)Nc2ccc(OC)cc2)S(=O)(=O)c2ccc(Cl)cc2)cc1,-0.854%
8,Cc1ccc(C)c(NC(=O)Cn2c(SCC(=O)NCc3ccccc3)nc3ccccc32)c1,0.657%
9,O=C(CN1C(=O)CSc2ccc(S(=O)(=O)N3CCOCC3)cc21)NCCCN1CCCCC1,-10.4%
10,Cc1nc(-c2ccc(F)cc2)sc1CCNC(=O)c1cccs1,9.67%
11,Cc1ccc(N(CC(=O)N2CCN(c3ccccc3)CC2)S(=O)(=O)c2c(C)noc2C)cc1,2.79%
12,COc1ccc(NC(=O)CSc2nc3ccccc3nc2N2CCCCC2)cc1,-4.85%
13,CCc1ccc(NC(=O)Cn2c(=O)n(-c3ccccc3C)c(=O)c3c2c2cc(OC)ccc2n3C)cc1,-0.975%
14,Clc1cccc(CN2CCN(c3ncccn3)CC2)c1Cl,active: 60.7%
15,CC(=O)Nc1ccc(C)cc1-c1nc2ccccc2n(CC(=O)c2ccc(C)c(C)c2)c1=O,23.1%
16,CN1CCN(c2nc3c(S(=O)(=O)c4ccc(Cl)cc4)nnn3c3ccsc23)CC1,3.93%
17,COc1ccc(S(=O)(=O)n2nc(C)c(S(=O)(=O)N3CCCCCC3)c2C)cc1C,16.7%
18,CCOc1ccccc1NS(=O)(=O)c1ccc(N2CCCCS2(=O)=O)cc1,-8.62%
19,O=C(NCCc1csc(-c2ccc(C(F)(F)F)cc2)n1)C(=O)Nc1ccc(F)c(Cl)c1,4.93%
20,CCOC(=O)c1c(N)n(-c2ccc(CC)cc2)c2nc3ccccc3nc12,5.81%
21,Cc1ccccc1Nc1nn2c(=O)c3ccc(C(=O)NCc4cccs4)cc3nc2s1,3.86%
22,Cc1cc(NS(=O)(=O)c2ccc(NC(=O)COc3ccccc3Br)cc2)no1,-4.42%
23,Cc1ccc(CNC(=O)CO/N=C/c2ccc(C(C)(C)C)cc2)cc1,active: 37.9%
24,Cc1ccc(NC(=O)NCCN2CCN(c3ccccc3)CC2)cc1Cl,active: 64.7%

row,SMILES,inhibition
1,Cc1cc(C)cc(NC(=O)CSc2ccc(-c3cccs3)nn2)c1,-20.3%
2,COc1ccc(C(CNC(=O)c2oc3cc(C)c(C)cc3c2C)N2CCCCC2)cc1 (stereo unspecified),-0.998%
3,Cc1ccc(Nc2nc(N)nc(CSc3nc4ccccc4s3)n2)cc1,-0.907%
4,Cc1c2cnn(CC(=O)NCc3ccc(Cl)cc3)c(=O)c2c(C)n1Cc1ccc(F)cc1,-5.22%
5,O=C(Cc1ccc(F)cc1)NCCc1csc2nc(-c3ccccc3F)nn12,11.7%
6,Cc1ccc(S(=O)(=O)C(CNC(=O)C(=O)NCCc2ccc(Cl)cc2)c2ccco2)cc1 (stereo unspecified),11.3%
7,CCOc1ccc(CNC(=O)C2CCCN(S(C)(=O)=O)C2)cc1OC (stereo unspecified),active: 52.1%
8,CCC(C)NC(=O)c1cc2n(n1)CCCN(Cc1ccc(C)cc1)C2=O (stereo unspecified),10.2%
9,Cc1ccc(N2CCN(C(=O)c3cccn4c(=O)c5ccc(Cl)cc5nc34)CC2C)cc1 (stereo unspecified),-3.03%
10,CCCC1(C(=O)OC)NC(c2cccc(F)c2)C2C(=O)N(CC)C(=O)C21 (stereo unspecified),active: 30.8%
11,COc1ccc(CCNc2ncnc3c2cnn3-c2ccc(C)c(Cl)c2)cc1,10%
12,Cn1c(=O)c2ccccc2n(Cc2ccccc2Cl)c1=O,active: 34.4%
13,Cc1ccc(NS(=O)(=O)c2ccc3oc(=O)c4ncn(C)c4c3c2)cc1C,-27.9%
14,O=C(CCC1N=C2c3ccccc3N=C(SCc3ccc(Cl)cc3)N2C1=O)NCc1cccs1 (stereo unspecified),9.31%
15,O=[N+]([O-])c1ccccc1NCCNS(=O)(=O)c1ccc(Cl)cc1,active: 33.8%
16,COc1ccc(-c2nn(-c3ccccc3F)cc2CNCCn2nc(C)cc2C)cc1,active: 37.3%
17,O=C(CCc1ccccc1)NC1CC(=O)N(c2cccc(F)c2)C1 (stereo unspecified),4.52%
18,COc1ccccc1C(=O)n1nc(-c2ccccc2)nc1NCc1ccc(Cl)cc1,-5.04%
19,CCC(=O)N1CCc2cc(S(=O)(=O)NC(CC(C)C)C(=O)Nc3cccc(C)c3C)ccc21 (stereo unspecified),-0.324%
20,COc1cccc(NC(=O)C2CCC(CNS(=O)(=O)c3csc(C(N)=O)c3)CC2)c1 (stereo unspecified),13.4%
21,O=C(CCCN1CCOC(c2ccccc2)C1)c1ccc(F)cc1 (stereo unspecified),active: 48.7%
22,CC(=O)c1ccc(NC(=O)CSc2nc(=O)n(Cc3ccccn3)c3c2CCC3)cc1,17.1%
23,CCc1ccc2oc(-c3cc(NC(=O)c4cc(OC)c(OC)c(OC)c4)ccc3O)nc2c1,12.5%
24,CCOCCCNC(=O)c1ccc2c(=O)n(CCc3ccccc3)c(=O)[nH]c2c1,-8.38%

row,SMILES,inhibition
1,COc1cccc(N2CCN(C(=O)c3cnn(-c4ccccc4Cl)c3C3CCN(C(=O)OC(C)(C)C)CC3)CC2)c1,-4.1%
2,CCCCc1ccc(NS(=O)(=O)c2cc3c4c(c2)CC(=O)N4CCC3)cc1,4.59%
3,C=CCN1CCN(C(=O)c2cc3c(s2)CCC(CC)C3)CC1 (stereo unspecified),active: 45.8%
4,COc1ccccc1N1CCN(C(=O)C2CCN(S(=O)(=O)c3cn(C)cn3)CC2)CC1,16%
5,COc1ccccc1NC(=O)CN1C(=O)C(c2ccc(F)cc2)=NC12CCCCC2,17.1%
6,COc1cccc(-c2cn3c(n2)sc2cc(C(=O)NC4CCCCC4)ccc23)c1,6%
7,CCc1ccccc1Nc1nn2c(=O)c3ccc(C(=O)NC(C)C)cc3nc2s1,10.5%
8,CCN(CCCNC(=O)c1cc2c(=O)n(C)c3ccccc3c2s1)c1ccccc1,-7.25%
9,COc1cc(NC(=O)C2CCN(c3cnccn3)CC2)cc(OC)c1,-21.6%
10,O=C(Cn1c(=O)n(Cc2ccco2)c(=O)c2oc3ccccc3c21)Nc1ccccc1,16.9%
11,CCC(=O)N1CCc2cc(S(=O)(=O)NC(Cc3ccccc3)C(=O)O)ccc21 (stereo unspecified),-7.3%
12,O=C(CCN1CCOCC1)N/N=C/c1cc(Br)cc(Br)c1O,active: 35.6%
13,O=C(CCCCCn1c(=O)c2sccc2n(Cc2ccccc2Cl)c1=O)NCc1ccc2c(c1)OCO2,-5.56%
14,COc1ccc(Nc2nc(N)nc(CSc3nnc(N)s3)n2)cc1,active: 38.2%
15,COc1ccc(CCNC(=O)C(C)n2nc(C)c3sc4ccccc4c3c2=O)c(OC)c1 (stereo unspecified),9.91%
16,Cc1ccc(S(=O)(=O)Nc2ccc3nc(-c4cccc(Cl)c4)oc3c2)cc1,-11.5%
17,Cc1ccc2oc(-c3ccc(Cl)c(NC(=O)c4cc5ccccc5o4)c3)nc2c1,1.79%
18,COc1ccc(Cl)cc1NC(=O)c1cnc2sc(N3CCOCC3)nn2c1=O,-23.7%
19,Cc1ccc(CNC(=O)c2cnc3c(-c4ccc(F)cc4)c(C)nn3c2C)o1,4.15%
20,CCN(C(=O)C1CCN(S(=O)(=O)c2c(C)noc2/C=C/c2ccc(C)cc2)CC1)c1cccc(C)c1,-15.3%
21,CCOc1ccc(-c2nonc2NC(=O)c2oc3ccc(CC)cc3c2C)cc1,-6.29%
22,CN1CCN(CCNC(=O)c2cnn(-c3ccc(Cl)cc3)c2C2CCN(C(=O)OC(C)(C)C)CC2)CC1,-3.25%
23,CCSc1nc2ccccc2c(OCc2ccccc2Cl)c1C(=O)OC,1.54%
24,COc1ccc(NC(=O)c2nc(-c3ccc(C)cc3)n3c2CCCCC3)cc1,-14.1%

row,SMILES,inhibition
1,COc1cccc(C(=O)N(Cc2nc(-c3ccc(Cl)cc3)no2)C(C)C)c1OC,-16.5%
2,COc1ccc(Oc2nc3c(c(=O)n(Cc4ccc(Br)cc4)c(=O)n3C)n2C)cc1,3%
3,COc1ccc(-n2ccnc(NCCc3ccccc3)c2=O)cc1OC,-0.565%
4,O=C(c1ccc(F)cc1)n1nc(-c2cccnc2)nc1NCc1ccccc1,-12.5%
5,Cc1nc2nc(CNC(=O)c3cccc(F)c3)nn2c(C)c1CCC(=O)Nc1cccc(Cl)c1,1.24%
6,Cc1nn(C(C)C(=O)Nc2ccccc2C(F)(F)F)c(=O)c2c1sc1ccccc12 (stereo unspecified),4.99%
7,CC(C)(C)c1ccc(C(=O)Nc2c(C(=O)c3ccc(F)cc3)oc3ccccc23)cc1,-3.08%
8,COc1ccccc1CNC(=O)COCc1cc(-c2cccs2)on1,-0.431%
9,Cc1ccc(N(CC(C)C)S(=O)(=O)c2nnc(NC(=O)C(C)C)s2)cc1,14.5%
10,Fc1ccc(Nc2nc3ccccc3n3cnnc23)c(F)c1,-16.9%
11,CCOc1ccc(C(=O)Nc2cc3c(cc2N2CCCC2)n(C)c(=O)c(=O)n3C)cc1OCC,-2.42%
12,CSc1ccc(CCNC(=O)CCCn2c(=O)c3cccn3c3ccccc32)cc1,7.26%
13,CSc1ncc2c(n1)-c1ccccc1N(Cc1ccccc1)S2(=O)=O,16.7%
14,Cc1ccc2[nH]c3c(=O)n(CC(=O)Nc4ccc(Br)cc4C)ncc3c2c1,-17%
15,O=C1c2[nH]nc(-c3ccc(F)cc3)c2C(c2ccccc2F)N1c1ccccc1 (stereo unspecified),-1.88%
16,O=C(c1cc(F)ccc1F)C1CCCN(C(=O)CCc2cnccn2)C1 (stereo unspecified),active: 37.9%
17,O=C(NCC1CCN(Cc2ccccc2F)CC1)Nc1ccc(F)c(Cl)c1,-11.5%
18,CCCOc1ccc(C(=O)Nc2cc3c(cc2N2CCCCC2)n(C)c(=O)n3C)cc1,10.7%
19,CC(C)c1ccc(N(CC(=O)O)S(=O)(=O)c2ccc3[nH]c(=O)c(=O)[nH]c3c2)cc1,13.7%
20,COc1ccc(Br)cc1CNC(=O)CN1C(=O)c2cccnc2Oc2ccc(C)cc21,-24.3%
21,Cc1ccc2oc(C(=O)Nc3ccc(S(=O)(=O)Nc4nccc(C)n4)cc3)cc(=O)c2c1,7.84%
22,Cc1ccc(S(=O)(=O)Cc2nc(-c3ccc(C(=O)NCCCOC(C)C)cc3)oc2C)cc1,-0.865%
23,Cc1ccc2ncc3c(-c4ccc(F)cc4)nn(CC(=O)Nc4ccccc4C)c3c2c1,15.9%
24,Cc1ccccc1NC(=O)/C(C#N)=C/c1ccc(Cl)cc1Cl,2.57%
